Test results from the RNAGym collection of RNA variant scans (doi:10.7554/elife.90254).
The source gives no read counts; variants with many changes may rest on few reads.

B1: OR4K15 (parent)
chain: GUUAACGGUCAUAGGCCAUGGAAACUAGGAGCACCAUUUCGCUGCCAGUGAAGAAAUGAACAAAGAAAAUCUGGGCCAGGCAGGCAUCAAAAGAAAUAGUCUUGCGCUCAACCAGAAAGUCUGUAAUCAUUUUAAGGGUA

Variants of: B1
Experiment: self-cleavage, relative activity (ratio to wild type); higher = more cleavage; in vitro, sequencing; the parent is a self-cleaving ribozyme

Variant	self-cleavage
GUUAACGGUCAUAGGCCAUGGAAACUAGGAGCCCCAUCUCGCUGCCAGUGAAGAAAUGAACAAAGAAGAUCUGGGCCAGGCAGGCAUCAAAAGAAAUAGUCUUGCGCUCAACCAGACAGUCUGUAAUCAUUUUAAGGGUA [A33C U38C A68G A117C]	0.39
GUUAACGGUCAUAGGCCGUGGAAACUAGGAGCACCAUUUCGCUGCCAGUGAAGAAAUGAACAAAGAGAAUCUGGGCCAGGCAGGCAUCAAAAGAAAUAGUCUCGCGCUCAACCGGAAAGUCUGUAAUCGUUUUAAGGGUA [A18G A67G U103C A114G A129G]	0.03
GUUAACGGUCAUAGGCCAUGGUAACUAGGAGCACCAUUUCGCUGCCAGUGAAGAAAUGAACAGAGAAAAUCUGGGCCAGGCAGGCACCAAAAGAAAUAGUCUUGCGCUCAACCAGAAAGUCCGUAAUCAUUUUAAGGGCA [A22U A63G U87C U122C U139C]	0.53
GUUAACGGUCAUAGGCCAUGGAAACUAGGAGCACCAUUUCGCUGCCAGUGAAGAAAUGAACAAAGAAAACCUGGGCCUGGCAGGCAUCAAAAGAAAUAGUCUUGCGCUCAACCAGAAAGUCUGUAAUCACUUUAAGGGUA [U70C A78U U130C]	0.14
GUUAACGGUCAUAGGCCAUGGAAACUAGGAGCACCAUUUCGCCGCCAGUGAAGAAAUGAACAAAGAAAAUCUGGGCCAGGCAGGCAUCAAGAGAAAUAGUCUAGCGCUCAACCAGAAAGUCUGUAAUCAUUUUAAGGGUA [U43C A91G U103A]	0.49
GUUAACGGUCAUAGGCCAUGGAAACUAGGAGCACCAUUUCGCUGCCAGUGAAGAAAUGAACAAUGAAAAUCUGGGCCAGGCAGGCAUCAAAAGAAAUAGUCCUGCGCUCAACCAGAAAGUCUGUAAUCAUCUUAAGGGUA [A64U U102C U131C]	2.33
GUUAACGGUCAUAGGCCAUGGAAACUAGGAGCACCAUUUCGCUGCCAGUGAAGAAAUGAACAAAGAAAAUCUGGGCCGGGCAGGCAUCACAAGAAAUAGUCUUGCGCUCAACCAGAAAGUCUGUAAUCAUUUUGAGGGUA [A78G A90C A134G]	0.18
GUUAACGGUCGUAGGCCAUGGAAACUAGGAGCACCAUUUCGCGGCCAGUGAAGAAGUGAACAAAGAAGAUCUGGGCCAGGCAGGCAUCACAAGAAAUAGUCUUGCGCUCAACCAGAAAGUCUGUAAUCAUUUUAAGGGUA [A11G U43G A56G A68G A90C]	0.83
AUUAACGGUCAUAGGCCAUGGAAACUAGGAGCACCAUUUCGCUGCCAGUGAAGAAAUGAACAAAGAAAAUCUGGGCCAGGCAGGCAUCAGAAGAAGUAGUCUUGCGCUCAACCAGAAAGUCUGUAAUCAUUUUAAGGGUA [G1A A90G A96G]	0.88
GUUAACGGUCAUAGGCCAUGGAAACUAGGAGCACCAUUUCGCAGCCAGUGAAGAAAUGAGCGAGGAAAAUCAGGGCCAGGCAGGCAUCAAAAGAAAUAGUCUUGCGCUCAACCAGAAAGUCUGUAAUCAUUUUAAGGGUA [U43A A60G A62G A64G U72A]	0.16
GUUAACGGUCAUAGGCCAUGGGAACUAGGAGCACCAUUUCGCUGCCGGUGAAGAGGUGAACAAAGAAAAUCUGGGCCAGGCAGGCAUCAAAAGAAAUAGUCUUGCGCUCAACCAGAAAGUCUGUAAUCAUUUUAAGGGUA [A22G A47G A55G A56G]	0
GUUAACGGUCGUAGGCCACGGAAACUAGGAGCACCAUUUCGCUGCCAGUGGAGAAAUGAGCAAAGAAAAUCUGGGCCAGGCAGGCAUCAAAAGAAAUAGUCUUGCGUUCAACCAGAAAGUCUGUAAUCAUUUUAAGGGUA [A11G U19C A51G A60G C107U]	0.07
GUUAGCGGUCAUAGGCCAUGGAAACUUGGAGCACCAUUUCGCUGCCAGUGAGGAAAUGAACAAAGAAGAUCUGGGCCAGGCAGGCAUCAAAAGAAAUAGUCUUGCGCUCAACCAGAAAGUCUGUAAUCAUUUUAAGGGUA [A5G A27U A52G A68G]	0.97
GUUAACGGUCAUAGACCAUGGAAACUAGGGGCACCAUUUCGCUGCCCGUGAAGAAAUGAACAAAGAAAAUCUGGGCCAGGCAGGCAUCGAAAGAAAUAGUCCUGCGCUCAACCAGAAAGUCUGUAAUCAUUUUCAGGGUA [G15A A30G A47C A89G U102C A134C]	1.6
GUUAACGGUCAUAGGCCAUGGUGACUAGGAGCACCAUUUCGCUGCCAGUGAAGAAAUGAACAAAGAAAAUCUGGGCCAGGCUGGCAUCAAAAGAAAUAGUCUUGCGCUCAACCAGAAAGUCUGUAAUCAUUUUAAGGGUA [A22U A23G A82U]	0.34
GUUAACGGUCAUAGGCCAUGGAAACUAGGAGCACCAUUUCGCUGCCAGUGAAGAAAUGGACAAAUAAAAUCUGUGCCAGGCAGGCAUCAAAAGAAAUAGUCUUGCGCUCAACCAGAAAGUCUGUAAUCAUUUUAAGGGUA [A59G G65U G74U]	0.34
GUUAACGGUCAUAGGCCAUGGGAACUAGGAGCACCAUUUCGCUGCCAGUGAAGAAAUGAACAAAGAAAAUCUGGGCCAGGCGGGCAUCAAAAGAAAUAGUCUUGCGCUCAACCAGAAAGUCUGUAAUCAUUCUAAGAGUA [A22G A82G U132C G137A]	0.73
GUUAACGGUCAUAGGCCAUGGGAACUAGGAGCACCAUUUCGCUGCCAGUGAAGAAAUGAACAAAGAAAAUCUGGGCCAGGCAGGCAUCAAAAGAAGUAGUCCUGCGCCCAACCAGAAAGUCUGUAAUCAUUUCAGGGGUA [A22G A96G U102C U108C U133C A135G]	0.01
GUUAACGGUCAUAGGCCAUGGAAACUAGGAGCACCAUCACGCUGCCAGUGGAGAAAUGAACGAAGAAAAUCUGGGCUAGGCAGGCAUCAAAAGAAAUAGUCUUGCGCUCAACCAGAAAGUCUGUAAUCACUUUAAGGGUA [U38C U39A A51G A62G C77U U130C]	0.66
GUUAACGGCCAUAGGCCAUGGAAACUAGGAGCACCAUUUCGCUGCCAGUGAAGAAAUGAACAAAGAAAAUCUGGGCCAGGCAGGCAUCAACGGAAAUAGUCAUGCGCUCAACCAGAAGGUCUGUAAUCAUUUUAAGGGUA [U9C A91C A92G U102A A118G]	1.17
GUUAGCGGUCAUAGGCCAUGGAAACAAGGAGCACCUUUUCGCUGCCAGUGAAGAAAUGAACAAAGAAAAUCUGGGCCGGGCAGGCAUCAAAAGAAAUAGUCUUGCGCUCAACCAGAAAGUCUGUAAUCAUUUUAGGGGUA [A5G U26A A36U A78G A135G]	0.2
